According to PubChem BioAssay (NCI):
“And” between values parts separate entries of the source, which are not always exact repeats. Identical values can stand only once.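 Values below derive from 48-hour exposures of cells grown in 96-well plates, with endpoints linearly interpolated between the two concentrations bracketing the appropriate inhibition level. Abbreviation: GI50, concentration required for 50% inhibition of growth. The concentration for full growth arrest is given as TGI.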

These molecules were tested on NCI-H322M lung (assay: growth of human tumour cells (NCI), 48 h).

Row | SMILES | TGI | GI50
1 | COC(=O)[C@@H]1CN(C(=O)Cc2ccccc2)C(=O)N1 | > 100 µM | 
2 | O=C(NOCCO)c1ccc2cncn2c1Nc1ccc(I)cc1F | > 100 µM | 0.0604 µM and 0.0427 µM
3 | Cc1csc(NCc2ccc(Cl)cc2)n1 | > 100 µM | 
4 | COc1cc(C(=O)/C=C/c2c[nH]c3ccccc23)cc(OC)c1OC | 20.8 µM | 0.0637 µM
5 | COc1ccc(Cl)cc1NC(=O)O/N=C(\Cl)C(C)C | 34.4 µM | 
6 | CCN(CC)c1ccc(N=Nc2ccc(-c3nc4cccnc4s3)cc2)cc1 | > 100 µM | 
7 | Clc1ccc(Cc2nc3cc4ccccc4cc3[nH]2)cc1Cl | 53.2 µM | 
8 | Cc1nc2nnc(CCCCCCCCc3nnc4nc(C)[nH]n34)n2[nH]1 | > 100 µM | 
9 | C=CCCCCCCCCCOC1C=CC(O)C(CO)O1 (centres undefined) | > 100 µM | 
10 | CCOC(=O)c1c(N2CCN(C)CC2)[nH]c(=O)c(C(c2c(Cl)cccc2Cl)c2c(O)c(C(=O)OCC)c(N3CCN(C)CC3)[nH]c2=O)c1O | 48.4 µM | 
11 | O=S(c1ccc(O)cc1)c1ccc(O)cc1 | > 100 µM | 
12 | CCOC(=O)c1c(CN2CCCCC2)nc2ccc(Cl)cc2c1-c1ccccc1 | > 100 µM | 44.1 µM
13 | C=C1C(C)C2C(Cc3ccccc3)NC(=O)C23C(OC(C)=O)C=CC(C)(O)C(=O)C(C)C/C=C/C3C1O (centres undefined) | > 500 µM | > 301 µM
14 | CCOC(=O)CN(CC)C(=O)NC12CC3CC(CC(C3)C1)C2 | > 605 µM | 
15 | Cc1ccc([N+](=O)[O-])cc1S(=O)(=O)Nc1ccc(C2=NN(S(=O)(=O)c3cc([N+](=O)[O-])ccc3C)C(c3ccccc3O)C2)cc1 (centres undefined) | > 100 µM | 
16 | CC(=O)OC1COC(N2C(=O)C(=O)c3ccccc32)C(OC(C)=O)C1OC(C)=O (centres undefined) | > 100 µM | 
17 | CC(=O)[CH-]C(=O)c1ccccc1.CC(=O)[CH-]C(=O)c1ccccc1.Cl.[O-]CCc1ccccn1.[O-]CCc1ccccn1.[Ti+4] | 58.3 µM | 18.5 µM
18 | COc1cc(F)c(F)c(Nc2ccc(I)cc2F)c1NS(=O)(=O)C1(CC(O)CO)CC1 (centres undefined) | 57.9 µM | 14.9 µM
19 | Nc1nc(SCC#CCCl)c2[nH]cnc2n1 | 31.9 µM | 13.1 µM
20 | COC1=CC(=O)C2(C=C1OC)OC[C@H]1Oc3c(ccc4c3C=CC(C)(C)O4)C(=O)[C@H]12 (some centres undefined) | > 100 µM | 
21 | CC[C@@]1(O)C(=O)OCc2c1cc1n(c2=O)Cc2c-1nc1ccc(N)cc1c2CC[Si](C)(C)C | 13.2 µM | 
22 | COc1oc(C2C/C(=C/C(C)=C/C(C)=C/C(C)=C/c3ccc([N+](=O)[O-])cc3)CO2)c(C)c(=O)c1C (centres undefined) | > 100 µM | 
23 | COC(=O)CC(=O)OC1C[C@@H]2CCC3C(C)(C)CCC[C@]3(C)C23CC[C@@]1(C)C3 (some centres undefined) | 34 µM | 
24 | NC1(C(=O)O)CCC(C(=O)O)CC1 (centres undefined) | > 100 µM | 
25 | CCCC(O)c1ccc2[nH]c3c(C)cc([N+](=O)[O-])c(C)c3c2c1 (centres undefined) | > 100 µM | 

Row | SMILES | TGI | GI50
26 | CC1CCc2c(C(=O)Nc3ncc(Cc4cccc([N+](=O)[O-])c4)s3)csc2C1 (centres undefined) | > 100 µM | 2.29 µM
27 | CCCCCCNC(=O)CCN(C(=O)O)S(=O)(=O)c1ccc(NC(=O)c2ccccc2)cc1 | > 100 µM | 
28 | O=C(NCC(O)COc1ccccc1)c1ccccc1O (centres undefined) | > 100 µM | 
29 | C=CCN(C(C)=O)c1cc(OCc2ccccc2)c2c(c1)c(C)cn2S(=O)(=O)c1ccccc1 | > 100 µM | 
30 | CSCSCC(CO)NC(=O)/C=C/c1c(C)[nH]c(=O)[nH]c1=O (centres undefined) | > 100 µM | 
31 | CC/C(CC(=O)CCC(=O)Nc1ccc(C)c(C)c1)=N\NC(=O)c1cc2ccccc2cc1O | > 100 µM | 
32 | Cc1cnc(C(=O)Nc2nc3ccc(S(=O)(=O)Nc4ccc(C(C)(C)C)cc4)cc3[nH]2)cn1 | 13.8 µM | 0.676 µM
33 | COc1cccc(C2c3cc4c(cc3OC(NNS(=O)(=O)c3ccc(C)cc3)C2C)OCO4)c1O (centres undefined) | > 100 µM | 
34 | O=C(NCCN1CCOCC1)c1cc2c(Oc3ccc(NC(=O)C4(C(=O)Nc5ccc(F)cc5)CC4)cc3)ccnc2[nH]1 | > 93.9 µM | 7.59 µM
35 | C(/C=C(\Nc1ccccc1)c1ccc2ccccc2c1)=Nc1ccccc1 | 8.59 µM | 
36 | Cc1n[nH]c(=O)c2c3c([nH]c12)-c1ccccc1C3 | > 100 µM | 
37 | O=[N+]([O-])c1ccc(N=P(c2ccccc2)(c2ccccc2)c2ccccc2)n2nnnc12 | > 100 µM | 
38 | O=C1c2cccc3cc([N+](=O)[O-])cc(c23)C(=O)N1c1ccc(OCCN2CCCC2)cc1 | > 100 µM | 
39 | CCCCCCCCCC(=O)Oc1ccc(/C(=C(/C)c2ccccc2)c2ccc(OCCN3CCCC3)cc2)cc1 | 15.7 µM | 8.04 µM
40 | CO[C@H]1C[C@H](O[C@H]2CC[C@@]3(C)[C@H](CC[C@@H]4[C@@H]3CC[C@]3(C)[C@@H](C5=CC(=O)OC5)CC[C@]43O)C2)O[C@H](C)[C@H]1O | 0.0499 µM | 
41 | O=C(Nc1c[nH]c(=O)[nH]c1=O)Oc1ccccc1 | > 100 µM | 
42 | CC(=O)OC1CCC2(C)C(CCC3C2CCC2(C)C(c4ccc(=O)oc4)C(OC(C)=O)CC32O)C1 (centres undefined) | 0.0284 µM | 
43 | CN(CCNC(=O)c1nn(C)c2c1Cc1ccccc1-2)CCNC(=O)c1nn(C)c2c1Cc1ccccc1-2 | 35.2 µM | 
44 | NS(=O)(=O)c1cccc(Nc2cc(-c3ccc(F)cc3)[nH]n2)c1 | > 25 µM | 14.3 µM
45 | CN(C(=O)C12C3C4C1C1C2C3C41C#N)C(C)(C)C (centres undefined) | > 100 µM | 
46 | O=C1CCNC/C1=C\c1ccccc1 | > 100 µM | 
47 | Oc1ccccc1/C=N\NC(=S)Nc1ccc(F)cc1 | 28.8 µM | 1.6 µM
48 | CCC(C)C(NC(=O)c1cccc2c(=O)c3ccccc3[nH]c12)C(=O)O (centres undefined) | > 100 µM | 
49 | Cc1ccc(-c2ccc3c(c2)Sc2ccccc2O3)n1C | > 100 µM | 
50 | NS(=O)(=O)c1ccc(Nc2c3ccccc3nc3c(C(=O)NC(CO)(CO)CO)cccc23)cc1 | 0.356 µM | 

Row | SMILES | TGI | GI50
51 | CCn1c(=O)c2nc(SC)sc2n(-c2ccccc2)c1=S | > 100 µM | 
52 | CCN(CC)C(=O)Cc1[nH][nH]c(=O)c1C(=O)N(CC)CC | > 100 µM | 
53 | CC(C)=CC(=O)c1[nH]c2ccccc2c1CC(=O)NCCc1cnc[nH]1 | > 100 µM | 
54 | CN1CCN(Cc2ccc(NC(=O)c3cncc(C#Cc4c(N)ncc5ccccc45)c3)cc2C(F)(F)F)CC1 | 1.43 µM | 0.713 µM
55 | COC(=O)C(=O)C(C(=O)C(=O)Nc1cc(C)ccc1C)c1nc2ccccc2[nH]c1=O (centres undefined) | > 100 µM | 
56 | Nc1ncc(CN2CCCC2)c(-c2ccccc2O)n1 | > 750 µM | 
57 | COc1ccc2nc(-c3ccc(N)cc3)sc2c1 | > 100 µM | 
58 | CC1OC(O[C@@H]2C=C3CC[C@@H]4[C@H](CC[C@]5(C)[C@@H](c6ccc(=O)oc6)CC[C@]45O)[C@@]3(C)CC2)C(O)C(O)C1O (some centres undefined) | 0.00254 µM and 0.000577 µM | 
59 | O=C1OCc2nc3c(c(-c4ccccc4C(F)(F)F)c21)C(=O)OC3 | > 100 µM | 
60 | O=C1c2ccccc2CC12Cc1ccc3c(c1C2=O)CCCC3 (centres undefined) | > 100 µM | 
61 | CCN(CC)C(=O)N[C@@H](CC(C)C)C(=O)NC | > 100 µM | 
62 | CCOC(=O)C(Oc1ccc(OC)c2c1C(=O)CCC2)c1ccccc1 (centres undefined) | > 100 µM | 
63 | CC(C)C1OC(=O)C(Cc2ccccc2)N(C)C(=O)C(C(C)C)OC(=O)C(Cc2ccccc2)N(C)C(=O)C(C(C)C)OC(=O)C(Cc2ccccc2)N(C)C1=O (centres undefined) | 2.89 µM | 
64 | c1cc(CSP234N5CCN2CCN3CCN4CC5)cc(CSP234N5CCN2CCN3CCN4CC5)c1 | > 100 µM | 
65 | Cc1[nH]c2c(C)c3c([nH]c4ccc(Cl)cc43)c(C)c2c(=O)c1C | 77.4 µM | 
66 | CSC(SC)=C(C#N)C(=O)Nc1ccc(Cl)cc1 | > 100 µM | 
67 | O=C(OC[C@H]1C[C@H]2C(=O)OCCC[C@H]2O1)c1ccccc1 | > 100 µM | 
68 | O=C1N(c2ccc(Cl)cc2)C(=O)C2(SC=NN2Cc2ccccc2)N1c1ccc(Cl)cc1 (centres undefined) | > 100 µM | 
69 | N#CCCN(C(=O)Nc1ccc(NC(=O)N(CCC#N)c2ccccc2)cc1)c1ccccc1 | > 100 µM | 
70 | O=C1N[C@@H]([C@H]2CC[C@H](Cl)CN2)C(=O)N[C@H]1[C@H]1CC[C@H](Cl)CN1 | 57 µM | 
71 | OC[C@H]1C[C@](O)(c2ccccc2Cl)[C@@H](c2ccccc2Cl)O1 | > 100 µM | 32.7 µM
72 | C1CCC(CC2CCC(NC3=NCCO3)CC2)CC1 (centres undefined) | 61 µM | 
73 | CCOc1c2c(cc3c1C(=O)c1c(OC)cccc1C3=O)C=C(OC)CC2 | > 25 µM | 
74 | CNC(=O)c1sc(-n2cnc3cc(OC)c(OC)cc32)cc1OCc1ccccc1C(F)(F)F | > 25 µM | > 25 µM
75 | CCCNC(=O)c1cc(OC)c(OC)cc1NC(=O)C12CC3CC(CC(C3)C1)C2 | 32.3 µM | 

Row | SMILES | TGI | GI50
76 | c1ccc(-c2cc(-c3ccccc3)nc(-c3ccncc3)c2)cc1 | > 100 µM | 
77 | CN(N=O)c1ccc(/C=C/c2ccnc3ccccc23)cc1 | > 100 µM | 
78 | CSc1ccc(-c2cn3ccsc3n2)cc1 | > 89.9 µM | > 36 µM
79 | O=C1c2c(c3c4ccccc4n(CC4CO4)c3c3[nH]c4ccccc4c23)C(=O)N1Cc1ccccc1 (centres undefined) | > 100 µM | 
80 | C[N+]1(CC[N+]2(C)CCCC2c2cccnc2)CCCC1c1cccnc1 (centres undefined) | 91.1 µM | 
81 | CN1C/C(=C\c2ccccc2)C2=NN(C(N)=S)[C@H](c3ccccc3)[C@@H]2C1 | > 100 µM | 
82 | COC(=O)c1sc(-n2cnc3cc(OC)c(OC)cc32)cc1OCc1ccccc1C(F)(F)F | > 25 µM | > 25 µM
83 | C(=C\c1ccc2ccccc2c1Nc1ccccc1)/c1ccccc1 | > 100 µM | 
84 | CN(C)NC(=O)NC12CC3CC(CC(C3)C1)C2 | > 100 µM | 
85 | C#Cc1c(C)c(/C=C/C(C)=C\C(=O)OC)n(C)c1C | > 100 µM | 
86 | O=C(O)c1ccccc1Sc1ccc(C=C2NC(=S)N(c3ccccc3)C2=O)s1 | > 100 µM | 
87 | O=C1OCOC2(CCCC2)C1c1ccccc1 (centres undefined) | > 100 µM | 
88 | O=C1OC(c2ccccc2)=N/C1=C\c1ccccc1 | > 100 µM | 
89 | COc1ccc([C@@H]2[C@@H](Cl)C(=O)N2c2cc(OC)c(OC)c(OC)c2)cc1C | > 100 µM | 2.19 µM
90 | COc1ccc(/C=N/n2c(-c3ccccc3)n[nH]c2=O)c(OC)c1 | > 100 µM | 
91 | CC(=O)O[C@H]1CSC[C@@H](OC(C)=O)C1[N+](=O)[O-] (some centres undefined) | > 100 µM | 
92 | Nc1nc(N)c(CCCCc2ccc([N+](=O)[O-])cc2)c(N)n1 | > 100 µM | 
93 | C=C(CN1CCN(c2cc(C(F)(F)F)cc(C(F)(F)F)c2)CC1)c1ccc(C(=O)Nc2ccccc2N)cc1 | > 100 µM | 21.9 µM
94 | COC(=O)c1sc2c(c1C(=O)OC)C(=Nc1ccc(OC)cc1)SC2=Nc1ccc(OC)cc1 | 2.98 µM | 
95 | O=C(O)CN(CCN(CC(=O)O)CC(=O)O)CC(=O)O.[Cu+2].[Na+] | > 100 µM | > 100 µM
96 | N#CC1=C(N)OC2=C(CCCc3ccc([N+](=O)[O-])cc32)C1c1ccc(Cl)cc1 (centres undefined) | > 100 µM | 
97 | COc1cc([C@H]2OC[C@@H]3C(c4cc(OC)c5c(c4)OCO5)OC[C@H]23)cc(OC)c1OC (some centres undefined) | > 100 µM | 
98 | CCC(CCCC[C@H]1CC[C@@H]2CC(=O)C[C@H]12)OC (some centres undefined) | > 100 µM | 
